Results reported in article PMC9911399, “Two distinct binding modes provide the RNA-binding protein RbFox with extraordinary sequence specificity”.
Substitutions are numbered along the chain they refer to; changes in the protein carry UniProt numbers. The list shows a part of the results.

T1: RBFOX1 RRM (Homo sapiens, UniProt Q9NWB1 109-208)
T1 sequence: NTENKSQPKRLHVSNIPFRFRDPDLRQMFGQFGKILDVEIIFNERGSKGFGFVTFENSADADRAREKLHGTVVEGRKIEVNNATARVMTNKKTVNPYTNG

B1: UAGCCGC (DNA:RNA)
RNA: GGGAGACCGGAAUUCAGAUUGUCCUAGCCGCUUAAAUCCCGUCGUAGCCACCA
DNA 1: CAATCTGAATTCCGGTCTCCC
DNA 2: TGGTGGCTACGACGGGATT
B2: GAAGUUA (DNA:RNA)
RNA: B1 RNA with U25G, G27A, C28G, C29U, G30U, C31A
DNA 1: CAATCTGAATTCCGGTCTCCC
DNA 2: TGGTGGCTACGACGGGATT
B3: UAAGGCC (DNA:RNA)
RNA: B1 RNA with G27A, C28G, C29G, G30C
DNA 1: CAATCTGAATTCCGGTCTCCC
DNA 2: TGGTGGCTACGACGGGATT
B4: GCAAUUC (DNA:RNA)
RNA: B1 RNA with U25G, A26C, G27A, C28A, C29U, G30U
DNA 1: CAATCTGAATTCCGGTCTCCC
DNA 2: TGGTGGCTACGACGGGATT
B5: GGAAUGU (DNA:RNA)
RNA: B1 RNA with U25G, A26G, G27A, C28A, C29U, C31U
DNA 1: CAATCTGAATTCCGGTCTCCC
DNA 2: TGGTGGCTACGACGGGATT
B6: GAGUCCC (DNA:RNA)
RNA: B1 RNA with U25G, C28U, G30C
DNA 1: CAATCTGAATTCCGGTCTCCC
DNA 2: TGGTGGCTACGACGGGATT
B7: GCCUAUC (DNA:RNA)
RNA: B1 RNA with U25G, A26C, G27C, C28U, C29A, G30U
DNA 1: CAATCTGAATTCCGGTCTCCC
DNA 2: TGGTGGCTACGACGGGATT
B8: AAAUCAC (DNA:RNA)
RNA: B1 RNA with U25A, G27A, C28U, G30A
DNA 1: CAATCTGAATTCCGGTCTCCC
DNA 2: TGGTGGCTACGACGGGATT
B9: ACGCGGA (DNA:RNA)
RNA: B1 RNA with U25A, A26C, C29G, C31A
DNA 1: CAATCTGAATTCCGGTCTCCC
DNA 2: TGGTGGCTACGACGGGATT
B10: GGAGGUU (DNA:RNA)
RNA: GGGAGACCGGAAUUCAGAUUGUCCGGAGGUUUUAAAUCCCGUCGUAGCCACCA
DNA 1: CAATCTGAATTCCGGTCTCCC
DNA 2: TGGTGGCTACGACGGGATT
B11: GUAUCUU (DNA:RNA)
RNA: B10 RNA with G26U, G28U, G29C
DNA 1: CAATCTGAATTCCGGTCTCCC
DNA 2: TGGTGGCTACGACGGGATT
B12: UUACGCU (DNA:RNA)
RNA: B10 RNA with G25U, G26U, G28C, U30C
DNA 1: CAATCTGAATTCCGGTCTCCC
DNA 2: TGGTGGCTACGACGGGATT
B13: GAGGGUG (DNA:RNA)
RNA: B10 RNA with G26A, A27G, U31G
DNA 1: CAATCTGAATTCCGGTCTCCC
DNA 2: TGGTGGCTACGACGGGATT
B14: UGUGCGU (DNA:RNA)
RNA: B10 RNA with G25U, A27U, G29C, U30G
DNA 1: CAATCTGAATTCCGGTCTCCC
DNA 2: TGGTGGCTACGACGGGATT
B15: GCGUAUU (DNA:RNA)
RNA: B10 RNA with G26C, A27G, G28U, G29A
DNA 1: CAATCTGAATTCCGGTCTCCC
DNA 2: TGGTGGCTACGACGGGATT
B16: UCCCUGU (DNA:RNA)
RNA: B1 RNA with A26C, G27C, C29U, C31U
DNA 1: CAATCTGAATTCCGGTCTCCC
DNA 2: TGGTGGCTACGACGGGATT
B17: UUCUCUC (DNA:RNA)
RNA: B1 RNA with A26U, G27C, C28U, G30U
DNA 1: CAATCTGAATTCCGGTCTCCC
DNA 2: TGGTGGCTACGACGGGATT
B18: GAAGUUG (DNA:RNA)
RNA: B10 RNA with G26A, G29U, U31G
DNA 1: CAATCTGAATTCCGGTCTCCC
DNA 2: TGGTGGCTACGACGGGATT
B19: AUUGGCC (DNA:RNA)
RNA: B10 RNA with G25A, G26U, A27U, U30C, U31C
DNA 1: CAATCTGAATTCCGGTCTCCC
DNA 2: TGGTGGCTACGACGGGATT
B20: CAUUUAA (DNA:RNA)
RNA: B1 RNA with U25C, G27U, C28U, C29U, G30A, C31A
DNA 1: CAATCTGAATTCCGGTCTCCC
DNA 2: TGGTGGCTACGACGGGATT
B21: GUGAAUG (DNA:RNA)
RNA: B10 RNA with G26U, A27G, G28A, G29A, U31G
DNA 1: CAATCTGAATTCCGGTCTCCC
DNA 2: TGGTGGCTACGACGGGATT
B22: GCCCUUU (DNA:RNA)
RNA: B10 RNA with G26C, A27C, G28C, G29U
DNA 1: CAATCTGAATTCCGGTCTCCC
DNA 2: TGGTGGCTACGACGGGATT
B23: UUCGCAG (DNA:RNA)
RNA: B1 RNA with A26U, G27C, C28G, G30A, C31G
DNA 1: CAATCTGAATTCCGGTCTCCC
DNA 2: TGGTGGCTACGACGGGATT
B24: UAAAACU (DNA:RNA)
RNA: B10 RNA with G25U, G26A, G28A, G29A, U30C
DNA 1: CAATCTGAATTCCGGTCTCCC
DNA 2: TGGTGGCTACGACGGGATT
B25: CCGAUUG (DNA:RNA)
RNA: B10 RNA with G25C, G26C, A27G, G28A, G29U, U31G
DNA 1: CAATCTGAATTCCGGTCTCCC
DNA 2: TGGTGGCTACGACGGGATT
B26: UGAGUCG (DNA:RNA)
RNA: B10 RNA with G25U, G29U, U30C, U31G
DNA 1: CAATCTGAATTCCGGTCTCCC
DNA 2: TGGTGGCTACGACGGGATT
B27: CCACAGG (DNA:RNA)
RNA: B1 RNA with U25C, A26C, G27A, C29A, C31G
DNA 1: CAATCTGAATTCCGGTCTCCC
DNA 2: TGGTGGCTACGACGGGATT
B28: CGUCUAG (DNA:RNA)
RNA: B10 RNA with G25C, A27U, G28C, G29U, U30A, U31G
DNA 1: CAATCTGAATTCCGGTCTCCC
DNA 2: TGGTGGCTACGACGGGATT
B29: AGCUGAU (DNA:RNA)
RNA: B10 RNA with G25A, A27C, G28U, U30A
DNA 1: CAATCTGAATTCCGGTCTCCC
DNA 2: TGGTGGCTACGACGGGATT
B30: GGAAGCC (DNA:RNA)
RNA: B10 RNA with G28A, U30C, U31C
DNA 1: CAATCTGAATTCCGGTCTCCC
DNA 2: TGGTGGCTACGACGGGATT
B31: AGACUAG (DNA:RNA)
RNA: B10 RNA with G25A, G28C, G29U, U30A, U31G
DNA 1: CAATCTGAATTCCGGTCTCCC
DNA 2: TGGTGGCTACGACGGGATT

The binders below were run against T1, RBFOX1 RRM (assay: EMSA; HiTS-Eq, 1 nM pool, 10 min; buffer printed only for the single-RNA assays: 10 mM Tris pH 7.5, 150 mM NaCl, 3.4 mM EDTA, 0.001% NP-40, 30 C). Conditions: tags: His6 N-terminal (pET28a); label: 5' 32P.
Procedure, shortened: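 Purified RbFox RRM, wild type or mutant, was incubated for 10 min in 50 µL with 1 nM of a 5′-radiolabelled RNA pool carrying 7 randomized nucleotides, whose flanks were annealed to DNA oligonucleotides, over a series of increasing protein concentrations. Unbound RNA was resolved on 8% native PAGE, cut out, reverse-transcribed, barcoded by PCR and sequenced on an Illumina HiSeq 2500. Relative association constants were derived from changes in read counts for each RNA species versus the control reaction and normalised to the cognate motif.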

Q: Which binding signal does the source give for B1 here?
A: 0.00928 KA relative to UGCAUGU

Q: How did the binding signal turn out when B2 was run?
A: 0.00696 KA relative to UGCAUGU

Q: Which binding signal does the source give for B3 here?
A: 0.0143 KA relative to UGCAUGU

Q: With B4 as the binder, how does the binding signal read?
A: 0.00667 KA relative to UGCAUGU

Q: Which binding signal does the source give for B5 here?
A: 0.0563 KA relative to UGCAUGU

Q: For B6, which binding signal is on record?
A: 0.00017 KA relative to UGCAUGU

Q: Which binding signal does the source give for B7 here?
A: 0.00685 KA relative to UGCAUGU

Q: Which binding signal does the source give for B8 here?
A: 0.000306 KA relative to UGCAUGU

Q: B9 was tested. Which binding signal did it give?
A: 0.00545 KA relative to UGCAUGU

Q: For B10, which binding signal is on record?
A: 0.022 KA relative to UGCAUGU

Q: For B11, which binding signal is on record?
A: 0.0109 KA relative to UGCAUGU

Q: With B12 as the binder, how does the binding signal read?
A: 0.00692 KA relative to UGCAUGU

Q: With B13 as the binder, how does the binding signal read?
A: 0.0242 KA relative to UGCAUGU

Q: With B14 as the binder, how does the binding signal read?
A: 0.0272 KA relative to UGCAUGU

Q: With B15 as the binder, how does the binding signal read?
A: 0.00728 KA relative to UGCAUGU

Q: Which binding signal does the source give for B16 here?
A: 0.00727 KA relative to UGCAUGU

Q: How did the binding signal turn out when B17 was run?
A: 0.00845 KA relative to UGCAUGU

Q: With B18 as the binder, how does the binding signal read?
A: 0.0204 KA relative to UGCAUGU

Q: For B19, which binding signal is on record?
A: 0.013 KA relative to UGCAUGU

Q: How did the binding signal turn out when B20 was run?
A: 0.00082 KA relative to UGCAUGU

Q: B21 was tested. Which binding signal did it give?
A: 0.0355 KA relative to UGCAUGU

Q: B22 was tested. Which binding signal did it give?
A: 0.00808 KA relative to UGCAUGU

Q: How did the binding signal turn out when B23 was run?
A: 0.014 KA relative to UGCAUGU

Q: For B24, which binding signal is on record?
A: 0.0034 KA relative to UGCAUGU

Q: How did the binding signal turn out when B25 was run?
A: 0.0159 KA relative to UGCAUGU

Q: Which binding signal does the source give for B26 here?
A: 0.0204 KA relative to UGCAUGU

Q: With B27 as the binder, how does the binding signal read?
A: 0.00975 KA relative to UGCAUGU

Q: For B28, which binding signal is on record?
A: 0.0108 KA relative to UGCAUGU

Q: For B29, which binding signal is on record?
A: 0.0138 KA relative to UGCAUGU

Q: B30 was tested. Which binding signal did it give?
A: 0.0141 KA relative to UGCAUGU

Q: B31 was tested. Which binding signal did it give?
A: 0.00782 KA relative to UGCAUGU
